# In paper PMC4336329 (PLoS ONE, 2015):
# Out of some 310,000 compounds screened, about 14,000 (4.5%) showed an effect of 50% or more. The effect is printed as a negative number. The list shows a part of the results.
# Target: human ether-à-go-go-related gene (hERG) potassium channel (human, UniProt Q12809)
# Assay: primary screen, population patch clamp on CHO cells stably expressing hERG
# 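Further: peak tail current of the secondary pulse compared with the same well before compound.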
# human ether-à-go-go-related gene (hERG) potassium channel, sequence (Q12809 whole entry, looked up): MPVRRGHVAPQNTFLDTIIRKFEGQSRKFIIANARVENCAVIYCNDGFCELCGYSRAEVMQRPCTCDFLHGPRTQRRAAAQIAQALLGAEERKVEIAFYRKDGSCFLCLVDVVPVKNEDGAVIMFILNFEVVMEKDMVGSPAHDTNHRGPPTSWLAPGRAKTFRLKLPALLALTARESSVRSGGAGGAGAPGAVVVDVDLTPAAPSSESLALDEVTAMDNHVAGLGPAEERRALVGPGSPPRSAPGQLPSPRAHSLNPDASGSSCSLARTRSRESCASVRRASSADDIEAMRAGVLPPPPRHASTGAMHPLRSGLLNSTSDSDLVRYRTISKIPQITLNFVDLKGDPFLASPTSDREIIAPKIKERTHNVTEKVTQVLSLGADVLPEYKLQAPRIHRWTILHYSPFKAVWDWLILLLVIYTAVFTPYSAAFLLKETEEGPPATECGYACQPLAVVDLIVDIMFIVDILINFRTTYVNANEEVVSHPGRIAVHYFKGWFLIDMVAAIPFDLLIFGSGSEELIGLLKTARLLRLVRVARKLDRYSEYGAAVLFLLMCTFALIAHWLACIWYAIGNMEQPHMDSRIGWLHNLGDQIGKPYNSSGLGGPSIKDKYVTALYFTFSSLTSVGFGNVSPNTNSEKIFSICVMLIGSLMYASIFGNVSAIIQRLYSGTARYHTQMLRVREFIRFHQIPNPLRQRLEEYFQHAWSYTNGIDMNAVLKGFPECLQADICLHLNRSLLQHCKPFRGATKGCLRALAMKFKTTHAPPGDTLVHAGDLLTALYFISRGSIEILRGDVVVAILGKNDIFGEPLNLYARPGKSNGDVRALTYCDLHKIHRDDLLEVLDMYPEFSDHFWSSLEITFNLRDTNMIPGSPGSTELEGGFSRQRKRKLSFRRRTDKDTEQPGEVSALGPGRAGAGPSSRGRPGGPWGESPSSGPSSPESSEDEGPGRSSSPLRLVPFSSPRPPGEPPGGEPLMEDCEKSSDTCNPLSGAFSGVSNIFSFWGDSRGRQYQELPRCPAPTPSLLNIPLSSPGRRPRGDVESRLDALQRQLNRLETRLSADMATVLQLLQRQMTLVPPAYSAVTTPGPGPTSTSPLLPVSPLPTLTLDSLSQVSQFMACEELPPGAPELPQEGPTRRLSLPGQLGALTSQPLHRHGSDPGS
row,SMILES,"hERG current change (%, negative = inhibition) at 10uM [%]"
1,O=C(NCCc1cccs1)c1ccc(Cl)cc1,-3.77
2,COC(=O)c1c(-c2ccc(C)cc2)csc1NC(=O)c1c(-c2ccccc2)noc1C,12.9
3,Cn1ccnc1/C(=N\NC(=O)c1ccc(O)cc1)c1cccc([N+](=O)[O-])c1,-22.7
4,COC(=O)C(NC(=O)C(NC(=O)C1CCC(C)CC1)C(C)C)C(C)C (centres unmarked),4.34
5,Cc1noc(C(=O)N2CC3(C)CC2CC(C)(C)C3)c1Cl (centres unmarked),-22.3
6,Cn1c(SCC(=O)NC(=O)Nc2ccccc2)nnc1-c1ccncc1,-13.5
7,NCC(=O)CCC(=O)O,13.3
8,CN1CCN(c2nc3c(c(=O)n(C)c(=O)n3C)n2Cc2ccc(Cl)cc2)CC1,-39.5
9,CCC(=NCCc1ccccc1)c1c(O)n(C)c(=O)n(C)c1=O,-2.35
10,COc1ccc(NC(=O)CSc2nccn2Cc2ccco2)cc1OC,11.3
11,Clc1ccc(-c2cc(CN3CCCCC3)no2)cc1Cl,6.49
12,O=C(/C=C/c1ccccc1)NCC(=O)N/N=C/c1ccco1,5.53
13,Cn1c(SCc2nc(-c3ccccc3)no2)nnc1-c1ccco1,-18.4
14,CC(C)N(C(=O)COC(=O)c1cncc(Br)c1)C(C)C,17.2
15,COC(=O)c1ccc2c(C)c(C(C)(C)O)[nH]c2c1,10.3
16,CNc1ncc(C(=O)C(C)(C)C)s1,8.03
17,CC(CN1CCN(c2ccccc2)CC1)c1ccccc1 (centres unmarked),-25.5
18,C/C(=N\NC(=O)c1ccc2c(c1)OCO2)c1ccco1,24.4
19,Cc1[nH]c2ccccc2c1C(C#N)(C#N)C1C(=O)c2ccccc2C1=O,2.55
20,CCOC(=O)c1[nH]c2ccccc2c1NC(=O)NC(C)C,14.5
21,Cc1ccc(S(=O)(=O)N2CCCCC2)cc1C(=O)N1CCCC1,7.66
22,COc1ccccc1Oc1ccc(S(=O)(=O)N2CCCCC2)cc1NC(=O)CCNC(C)=O,-55.1
23,COc1ccc(NC(=O)CNc2ccccc2N2CCCC2=O)cc1S(=O)(=O)N1CCOCC1,0.849
24,COC(=O)C1CCN(C(=O)COC(=O)CCc2nc3ccccc3c(=O)[nH]2)CC1,3.65
25,Cc1ccc2[nH]c(=O)c(CN(CCO)C(=O)N(C)C)cc2c1,5.5
26,COCCCn1c(Cc2csc(Nc3ccccc3)n2)nnc1SCC(N)=O,14.8
